Results: PubChem BioAssay (NCI)
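Method: 48-hour compound exposure of cells in 96-well plates, five concentrations, linear interpolation of endpoints. GI50: concentration for 50% inhibition of growth. TGI is the concentration that stops growth completely.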

test system: NCI-H322M lung; experiment: NCI tumour cell line growth inhibition, 48 h

Going from `COc1cc2cc(C(=O)N3C[C@@H](CCl)c4c3cc(OC(=O)N3CCN(C)[C@@H]5CSSC[C@H]53)c3ccccc43)[nH]c2c(OC)c1OC` to `COc1ccc(Cc2nn(CC(=O)N/N=C/c3ccc(F)cc3)c(=O)c3c(C)noc23)cc1`, the GI50 rises from 0.0234 µM to 5.27 µM (230-fold).

Going from `O=C(/C=C/c1ccco1)c1nc2ccccc2n1Cc1ccc(Br)cc1` to `O=c1oc2ccc(-c3ccc(F)cc3F)cc2c(=O)n1-c1ccc(F)c(Cl)c1`, the GI50 falls from 17.4 µM to 2.78 µM (6.3-fold).

Going from `COc1cc2cc(C(=O)N3C[C@@H](CCl)c4c3cc(OC(=O)N3CCN(C)[C@@H]5CSSC[C@H]53)c3ccccc43)[nH]c2c(OC)c1OC` to `COc1ccc(Cc2nn(CC(=O)N/N=C/c3ccc(F)cc3)c(=O)c3c(C)noc23)cc1`, the TGI rises from 0.892 µM to 26 µM (29-fold).

Going from `O=C(/C=C/c1ccco1)c1nc2ccccc2n1Cc1ccc(Br)cc1` to `O=c1oc2ccc(-c3ccc(F)cc3F)cc2c(=O)n1-c1ccc(F)c(Cl)c1`, the TGI falls from 52.7 µM to 11.2 µM (4.7-fold).
